Measurements from PubChem BioAssay AID588855 (National Center for Advancing Translational Sciences (NCATS), 2011).
Among all 410,000 compounds or so, about 5,000 (1.2%) were called active. Inconclusive means that the source gave no clear call. Such entries were picked first, then a sample of the others. Calls come from the whole dose curve; as a rule, active = well fitted inhibition curve with a large enough effect; inconclusive = small, poorly fitted or top-dose-only effect; inactive = no such curve, though single readings can be large or run the other way. Potencies beside an inconclusive call are fits to weak or partial responses and may not hold up.

experiment: qHTS for Inhibitors of TGF-b; conditions: HepG2 CAGA-GFP TGF-b/SMAD3 reporter, GFP fluorescence, 18 h, TGF-beta stimulated, 500 pg/mL final; series mostly up to 46.1 µM; note: nearly all actives have a fitted effect of over 65% in size
Outline: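 GFP signal (ex488/em500-530) from TGF-beta-stimulated HEPG2 CAGA-GFP cells, 500 pg/mL final, 18 h at 37 degrees C in DMEM plus 1% FBS, normalized to unstimulated and DMSO-stimulated controls.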
Potency is the fitted concentration of half-maximal effect; tags give direction and shape of the fitted curve.

Row | Structure (SMILES) | Potency
1 | Cc1oc2cc([N+](=O)[O-])c(O)c([N+](=O)[O-])c2c1C(=O)c1ccc(Cl)cc1 | inactive
2 | CC(=O)c1ccc(-c2cnc3c(NC=O)cc(-c4cccc(NS(C)(=O)=O)c4)cn23)cc1 | active: 7.08 µM
3 | CCN(CC)CCCNC(=O)c1ccc(-c2nc(CN3CCc4ccccc43)c(C)o2)cc1 | inconclusive: 35.5 µM [inhibitor, single point]
4 | O=C(CC1CCCC1)N1CCCC(Nc2ccc(F)cc2)C1 (centres undefined) | inconclusive: 1.78 µM [inhibitor, partial curve, poor fit]
5 | Clc1ccc(/C=C/c2nc3ccccc3[nH]2)cc1 | inactive
6 | COC(=O)c1cccc(-c2noc(-c3ccccc3F)n2)c1 | inconclusive: 11.2 µM [inhibitor, single point]
7 | CCC(C)Sc1cc(-c2nc3ccc(C)cn3c2NCc2ccccc2)ccc1OC (centres undefined) | active: 12.6 µM
8 | CC(C)(C)CC(C)(C)N=C1Nc2cc(Cl)c(Cl)cc2N[C@]12C[C@H]1CCCC(=O)N3CC[C@@H](C2)[C@@H]13 | active: 7.08 µM
9 | Cc1nnc(NC(=O)C2CCCN(S(=O)(=O)c3ccccc3C(F)(F)F)C2)s1 (centres undefined) | inconclusive: 2.51 µM [inhibitor, partial curve, poor fit]
10 | CC(C)CCn1c(SCC(=O)NC2CC2)nc2cc(Cl)ccc2c1=O | inactive
11 | CCc1c(C)nc2cc(-c3ccc(Cl)cc3)[nH]n2c1=O | inactive
12 | CC(=O)c1sc(NC(=O)C2(F)C(F)(F)C(F)(F)C(F)(F)C(F)(F)C2(F)F)nc1C | active: 2.82 µM
13 | CSc1ccccc1NC(=O)c1ccc(N2CCCC2=O)cc1 | inactive
14 | COC(=O)c1ccc(/C=C/c2ccc3cccc(OC)c3n2)cc1 | inconclusive: 3.55 µM [inhibitor, partial curve, poor fit]
15 | S=C(NNc1ccc2ccccc2c1)NC1CCCCC1 | inconclusive: 35.5 µM [inhibitor, single point]
16 | Cc1[nH]nc(-c2ccc(O)c(C)c2O)c1Oc1ccccc1 | inconclusive: 6.31 µM [inhibitor, full curve, poor fit]
17 | COc1cc2nc(Cl)nc(N3CCCCC3)c2cc1OC | inactive
18 | COc1ccc(-c2oc3ccccc3c2C#CC(C)(C)O)cc1 | inconclusive: 35.5 µM [inhibitor, single point]
19 | CCN(CC)C(=O)c1c(-c2ccccc2)c(-c2ccccc2)nn(C)c1=O | inconclusive: 12.6 µM [inhibitor, partial curve, poor fit]
20 | CC(NC(=O)C1CCN(S(=O)(=O)c2cc([N+](=O)[O-])ccc2Cl)CC1)c1ccccc1 (centres undefined) | inactive
21 | CCCOc1cccc(-c2cc(C(=O)N/N=C/c3cccnc3)c3ccccc3n2)c1 | inconclusive: 17.8 µM [inhibitor, single point]
22 | O=C(CCN1C(=O)C2CC=CCC2C1=O)Nc1nc(-c2ccc(F)c(F)c2)cs1 (centres undefined) | inactive
23 | CC(=NNC(=S)N1CCCCCC1)c1ccccn1 | active: 1.26 µM

Row | Structure (SMILES) | Potency
24 | C=CCOc1c(Br)cc(/C=N/Nc2ccc(C(=O)O)cc2)cc1OCC | inconclusive: 35.5 µM [inhibitor, single point]
25 | CNC(=O)CSc1nnc(C(C)C)n1C | inactive
26 | CCCOc1ccc(-c2cc(C(=O)NCC3CCCO3)c3ccccc3n2)cc1 (centres undefined) | inconclusive: 6.31 µM [inhibitor, single point]
27 | COc1cc2oc(-c3ccc(O)cc3)cc(=O)c2c(O)c1OC | inactive
28 | Cc1ccccc1OCC1Cn2c(nc3c2c(=O)n(C)c(=O)n3C)O1 (centres undefined) | inconclusive: 35.5 µM [inhibitor, partial curve, poor fit]
29 | CCN1c2ccccc2NC2N=C(OC)C(c3ccccc3)C21 (centres undefined) | active: 12.6 µM
30 | Cc1cc(/C=C2\SC(=O)N(C)C2=O)c(C)n1-c1ccc(O)cc1 | inconclusive: 35.5 µM [inhibitor, single point]
31 | COc1ccc(C2=NOC(C(=O)NCc3ccc(F)cc3)C2)cc1OC (centres undefined) | inconclusive: 35.5 µM [inhibitor, single point]
32 | O=C(NC(=S)Nc1cccc(O)c1)C12CC3CC(CC(C3)C1)C2 | inconclusive: 22.4 µM [inhibitor, single point]
33 | CC(C)(C)c1ccc(OCC(O)CN2CCc3ccccc3C2)cc1 (centres undefined) | inconclusive: 25.1 µM [inhibitor, single point]
34 | CC(=O)c1ccc(NS(=O)(=O)c2c(C)cc(C)cc2C)cc1 | inconclusive: 11.2 µM [inhibitor, single point]
35 | CCOC(=O)c1c(C)oc2nc(C)nc(N3CCN(c4ccc(C)cc4C)CC3)c12 | inactive
36 | O=C(Cn1nnc(-c2ccccc2Cl)n1)Nc1cccc(S(=O)(=O)N2CCCC2)c1 | inconclusive: 35.5 µM [inhibitor, single point]
37 | COc1ccc(CCNC(=O)C2CCN(C(=O)c3cccs3)CC2)cc1 | inactive
38 | CCn1c2ccccc2c2cc(NC(=O)COc3cc(C)c(Cl)c(C)c3)ccc21 | inactive
39 | Cc1ccc(Sc2c(C=O)c3ccccc3n2C)cc1 | inconclusive: 35.5 µM [inhibitor, single point]
40 | CC(C)(C)OC(=O)NCc1ccc(NC(=O)c2nc[nH]c2C(=O)NCCCCCCNC(=O)c2[nH]cnc2C(=O)Nc2ccc(CNC(=O)OC(C)(C)C)cc2)cc1 | inconclusive: 11.2 µM [inhibitor, partial curve]
41 | COc1cccc(F)c1C(C[N+](=O)[O-])c1c(N)n(C)c(=O)n(C)c1=O (centres undefined) | active: 3.98 µM
42 | CCN(C(=O)c1ccnc(C(C)(C)C)c1)c1ccccc1 | inconclusive: 17.8 µM [inhibitor, single point]
43 | CCN1CCCc2cc(CN(CCN3CCOCC3)C(=S)Nc3cccc(OC)c3)ccc21 | inconclusive: 4.47 µM [inhibitor, partial curve, poor fit]
44 | Cc1cnc(NC(=O)C2CCCO2)s1 (centres undefined) | inconclusive: 35.5 µM [inhibitor, single point]
45 | CCOc1ccc(CCNC(=O)C2CCCN(c3nnc(C)c4c(C)n(-c5ccccc5)nc34)C2)cc1 (centres undefined) | inactive
46 | Cc1cccc(/C=c2\s/c(=C\C(=O)C(C)(C)C)[nH]c2=O)c1 | inconclusive: 35.5 µM [inhibitor, single point]

Row | Structure (SMILES) | Potency
47 | COc1cccc(N(C(=O)CCl)C(C(=O)NCCc2ccccc2)c2cccs2)c1 (centres undefined) | active: 12.6 µM
48 | O=[N+]([O-])c1ccc(OCC(O)CNCCNc2nccc(C(F)(F)F)n2)cc1 (centres undefined) | inconclusive: 25.1 µM [inhibitor, single point]
49 | COc1ccc(CC(=O)Nc2cccc(-c3nnc(-c4ccc(C)cc4)o3)c2)cc1OC | inconclusive: 3.98 µM [inhibitor, partial curve, poor fit]
50 | Cc1cccc(C)c1NC(=O)c1ccc(-c2cc(F)ccc2F)o1 | inconclusive: 1.58 µM [inhibitor, full curve]
51 | Cc1ccc(Nc2cc(C(=O)NC3CCCC3)c3ccccc3n2)cc1C | inconclusive: 3.98 µM [inhibitor, single point]
52 | CCN1CC(CN(C)Cc2nc(-c3ccc(Cl)cc3)no2)CC1=O (centres undefined) | inconclusive: 35.5 µM [inhibitor, single point]
53 | CN(C)S(=O)(=O)c1cccc(NC(=S)N/N=C/c2ccco2)c1 | inconclusive: 2.24 µM [inhibitor, full curve, poor fit]
54 | O=C(c1cc(-c2ccc(Br)cc2)n[nH]1)N1CCN(C(=O)c2ccccc2Br)CC1 | inconclusive: 35.5 µM [inhibitor, single point]
55 | COc1ccc(-n2c(SCc3nc(-c4ccc(C)cc4)no3)nnc2-c2ccncc2)cc1 | inconclusive: 35.5 µM [inhibitor, single point]
56 | Nc1cc2c(cc1Br)-c1ccccc1C2=NO | inconclusive: 20 µM [inhibitor, partial curve, poor fit]
57 | O=C(OCc1c(-c2ccccc2)ncc2ccccc12)c1cccs1 | inconclusive: 35.5 µM [inhibitor, single point]
58 | Cc1ccc(-c2c(CN3CCN(c4cc(Cl)ccc4C)CC3)csc2C)cc1 | inconclusive: 15.8 µM [inhibitor, partial curve, poor fit]
59 | CCn1c(C)cs/c1=N\C(=S)Nc1ccccc1C | inactive
60 | O=C(CSc1nc2ccccc2n1CC(=O)Nc1ccc(F)cc1F)Nc1ccc(F)cc1 | inactive
61 | Cc1ccc(OCc2nnc(NC(=O)c3ccco3)s2)cc1 | inconclusive: 5.62 µM [inhibitor, full curve, poor fit]
62 | Cc1ccc(CNC(=O)c2ccc3c(=O)c(O)c(-c4ccc(C)cc4)[nH]c3c2)cc1 | inconclusive: 8.91 µM [inhibitor, partial curve, poor fit]
63 | COc1cc(OC)c(C2SCCN2S(=O)(=O)c2ccc(F)cc2)cc1OC (centres undefined) | inconclusive: 10 µM [inhibitor, partial curve]
64 | CCc1ccccc1Nc1nn2c(=O)c3ccc(C(=O)NCCc4ccccc4)cc3nc2s1 | inactive
65 | Cc1c(Cl)cccc1NC(=O)CN1C(=O)c2ccccc2Sc2ncccc21 | inconclusive: 6.31 µM [inhibitor, single point]
66 | Cc1ccc(Cc2c(C3CCCCC3)nc3ccc(C)cn23)cc1 | inconclusive: 35.5 µM [inhibitor, single point]
67 | COc1ccccc1C(CNC(=O)CNC(=O)c1ccccc1Cl)N1CCCC1 (centres undefined) | inactive
68 | Cc1nc2cc(C(=O)N3CCc4ccccc43)ccc2n1-c1ccc(F)c(F)c1 | inconclusive: 14.1 µM [inhibitor, single point]
69 | NS(=O)(=O)c1ccc(CCNC(=O)c2ccccc2OCc2ccc(F)cc2)cc1 | inactive
